# ± gives the standard deviation of the averaged measurements. The full ranking holds about 2,900 compounds; the median of “IRF Lucia reporter activity, fold change vs agonist alone” is about 0.9, and the highest 2% start at about 2.8. The list shows a part of the results.
# How the values were obtained:
# [1] = system: RAW-Dual; assay: IRF Lucia reporter activity, fold change vs agonist alone; cytotoxicity flag (confluency mask): cytotoxic (confluency <70% of control); higher = enhanced IRF activity
# Summary of the method: (§1)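 Reporter activity is given as fold change relative to agonist-alone wells. To measure it, 50 nL of library stock was pin-tooled onto RAW-Dual macrophages (50,000 cells/well, DMEM, 384-well plates), a PRR agonist followed 1 h later, and cells stayed at 37 °C, 5% CO2. Twenty hours on, supernatant was assayed for IRF (QuantiLuc luminescence) and NF-κB (QuantiBlue, 620 nm absorbance), and wells under 70% of agonist-control IncuCyte confluency in both mask sets were marked cytotoxic.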
# [2] = system: RAW-Dual; assay: IRF Lucia reporter activity, fold change vs agonist alone; cytotoxicity flag (confluency mask): not cytotoxic; higher = enhanced IRF activity
# Summary of the method: as §1
# [3] = system: RAW-Dual; assay: IRF Lucia reporter activity, fold change vs agonist alone; higher = enhanced IRF activity; settings: agonist: MPLA (TLR4) […]
# Summary of the method: as §1
# [4] = agonist: 3'3'-cGAMP (STING) 10 ug/mL
# [5] = library stock concentration (final ~1000-fold dilution): 10 mM, cytotoxicity flag (confluency mask): cytotoxic (confluency <70% of control)
# [6] = library stock concentration (final ~1000-fold dilution): 10 mM, cytotoxicity flag (confluency mask): not cytotoxic
smiles,measurement,setting,value
CCN(CC)CCOc1ccc(Nc2ncc3cc(-c4c(Cl)cccc4Cl)c(=O)n(C)c3n2)cc1 (library stock concentration (final ~1000-fold dilution): 10 mM),IRF Lucia reporter activity,[1]; [4],0.107
same,IRF Lucia reporter activity,[1]; agonist: LPS (TLR4) 0.1 ug/mL,0.0105
Cc1sc2c(c1C)C(c1ccc(Cl)cc1)=N[C@@H](CC(=O)NCCCCCCCCNC(=O)COc1cccc3c1C(=O)N(C1CCC(=O)NC1=O)C3=O)c1nnc(C)n1-2 (stereo partly specified) (library stock concentration (final ~1000-fold dilution): 10 mM),IRF Lucia reporter activity,[1]; [4],0.189
same,IRF Lucia reporter activity,[1]; agonist: LPS (TLR4) 0.1 ug/mL,0.244
CC(C)C(CO)Nc1nc(Nc2cccc(Cl)c2)c2ncn(C(C)C)c2n1 (stereo unspecified) (library stock concentration (final ~1000-fold dilution): 10 mM),IRF Lucia reporter activity,[2]; [4],0.0133
same,IRF Lucia reporter activity,[2]; agonist: LPS (TLR4) 0.1 ug/mL,0.152
CNC(=O)c1ccc(Nc2ncc(C(F)(F)F)c(NCc3nccnc3N(C)S(C)(=O)=O)n2)cc1 (library stock concentration (final ~1000-fold dilution): 2 mM),IRF Lucia reporter activity,[2]; [4],0.464
same,IRF Lucia reporter activity,[2]; agonist: LPS (TLR4) 0.1 ug/mL,0.119
CC(C)(C)c1ccc(S(=O)(=O)/C=C/C#N)cc1 (library stock concentration (final ~1000-fold dilution): 10 mM),IRF Lucia reporter activity,[2]; [4],0.00698
same,IRF Lucia reporter activity,[2]; agonist: LPS (TLR4) 0.1 ug/mL,0.00878
same,IRF Lucia reporter activity,[1]; [4],0.0107 ± 0.00056
same,IRF Lucia reporter activity,[1]; agonist: LPS (TLR4) 0.1 ug/mL,0.0214 ± 0.0092
CC(C)(C)c1ccc(S(=O)(=O)/C=C/C#N)cc1,IRF Lucia reporter activity,[3]; [5],0.403 ± 0.54
CCNC(=O)C#Cc1ccc2c(c1)NC(=O)/C2=C(\Nc1ccc(CN(C)C)cc1)c1ccccc1 (library stock concentration (final ~1000-fold dilution): 10 mM),IRF Lucia reporter activity,[1]; [4],0.0141
same,IRF Lucia reporter activity,[1]; agonist: LPS (TLR4) 0.1 ug/mL,0.0123
Cc1cc(N2CCOCC2)ccc1Nc1nc(NC2CCCCC2)c2nc[nH]c2n1 (library stock concentration (final ~1000-fold dilution): 10 mM),IRF Lucia reporter activity,[2]; [4],0.536
same,IRF Lucia reporter activity,[2]; agonist: LPS (TLR4) 0.1 ug/mL,0.674
Cc1cc(N2CCOCC2)ccc1Nc1nc(NC2CCCCC2)c2nc[nH]c2n1,IRF Lucia reporter activity,[3]; [6],0.884
COc1ccc(-c2nc(-c3cc(C(F)(F)F)cc(C(F)(F)F)c3)n(Cc3ccc(C(N)=O)cc3)c2-c2ccc(OC)cc2)cc1 (library stock concentration (final ~1000-fold dilution): 10 mM),IRF Lucia reporter activity,[2]; [4],0.676
same,IRF Lucia reporter activity,[2]; agonist: LPS (TLR4) 0.1 ug/mL,1.1
CCCNC(=O)Nc1ccc(Oc2ncnc3cc(OC)c(OC)cc23)cc1Cl,IRF Lucia reporter activity,[3]; [6],0.93
CCCNC(=O)Nc1ccc(Oc2ncnc3cc(OC)c(OC)cc23)cc1Cl (library stock concentration (final ~1000-fold dilution): 10 mM),IRF Lucia reporter activity,[2]; [4],0.817
same,IRF Lucia reporter activity,[2]; agonist: LPS (TLR4) 0.1 ug/mL,0.856
O=C(NCc1ccccn1)Nc1nnc(-c2ccco2)o1 (library stock concentration (final ~1000-fold dilution): 10 mM),IRF Lucia reporter activity,[2]; [4],0.858
same,IRF Lucia reporter activity,[2]; agonist: LPS (TLR4) 0.1 ug/mL,1.03
COC1=CC(=O)c2ccccc2C1=O,IRF Lucia reporter activity,[3]; [5],0.0543
COC1=CC(=O)c2ccccc2C1=O (library stock concentration (final ~1000-fold dilution): 10 mM),IRF Lucia reporter activity,[1]; [4],0.0142
same,IRF Lucia reporter activity,[1]; agonist: LPS (TLR4) 0.1 ug/mL,0.0169
Cc1cn(-c2cc(NC(=O)c3ccc(C)c(Nc4nccc(-c5cccnc5)n4)c3)cc(C(F)(F)F)c2)cn1,IRF Lucia reporter activity,[3]; [6],1.07
Cc1cn(-c2cc(NC(=O)c3ccc(C)c(Nc4nccc(-c5cccnc5)n4)c3)cc(C(F)(F)F)c2)cn1 (library stock concentration (final ~1000-fold dilution): 10 mM),IRF Lucia reporter activity,[2]; [4],1.23
same,IRF Lucia reporter activity,[2]; agonist: LPS (TLR4) 0.1 ug/mL,1.5
Br.COc1cc(Br)c(Nc2nc(-c3c(C)nc4ncccn34)cs2)c(Br)c1 (library stock concentration (final ~1000-fold dilution): 10 mM),IRF Lucia reporter activity,[2]; [4],0.318
same,IRF Lucia reporter activity,[2]; agonist: LPS (TLR4) 0.1 ug/mL,2.19
Br.COc1cc(Br)c(Nc2nc(-c3c(C)nc4ncccn34)cs2)c(Br)c1,IRF Lucia reporter activity,[3]; [6],1.37
O=c1[nH]c(=O)c2nc3ccccc3nc2[nH]1 (library stock concentration (final ~1000-fold dilution): 2 mM),IRF Lucia reporter activity,[2]; [4],0.892
same,IRF Lucia reporter activity,[2]; agonist: LPS (TLR4) 0.1 ug/mL,1.12
O=c1[nH]c(=O)c2nc3ccccc3nc2[nH]1,IRF Lucia reporter activity,"[3]; library stock concentration (final ~1000-fold dilution): 2 mM, cytotoxicity flag (confluency mask): not cytotoxic",1
COC(=O)C1=C(C)NC(C)=C(C(=O)OC(C)(C)CN(C)CCC(c2ccccc2)c2ccccc2)C1c1cccc([N+](=O)[O-])c1.Cl (stereo unspecified),IRF Lucia reporter activity,[3]; [6],2.1
COC(=O)C1=C(C)NC(C)=C(C(=O)OC(C)(C)CN(C)CCC(c2ccccc2)c2ccccc2)C1c1cccc([N+](=O)[O-])c1.Cl (stereo unspecified) (library stock concentration (final ~1000-fold dilution): 10 mM),IRF Lucia reporter activity,[2]; [4],0.139
same,IRF Lucia reporter activity,[2]; agonist: LPS (TLR4) 0.1 ug/mL,3.23
CC1COCCN1c1cc(C2(S(C)(=N)=O)CC2)nc(-c2ccnc3[nH]ccc23)n1 (stereo unspecified) (library stock concentration (final ~1000-fold dilution): 10 mM),IRF Lucia reporter activity,[2]; [4],0.193
same,IRF Lucia reporter activity,[2]; agonist: LPS (TLR4) 0.1 ug/mL,1.39
CC(=O)N[C@@H](CS)C(=O)O (library stock concentration (final ~1000-fold dilution): 10 mM),IRF Lucia reporter activity,[2]; [4],1.03
same,IRF Lucia reporter activity,[2]; agonist: LPS (TLR4) 0.1 ug/mL,0.875
CCCC1CC(C(=O)NC(C(C)Cl)C2OC(SC)C(O)C(O)C2O)N(C)C1.Cl.O (stereo unspecified) (library stock concentration (final ~1000-fold dilution): 10 mM),IRF Lucia reporter activity,[2]; [4],1.02
same,IRF Lucia reporter activity,[2]; agonist: LPS (TLR4) 0.1 ug/mL,0.872
